Reference: PubChem BioAssay AID1345082 (National Center for Advancing Translational Sciences (NCATS), 2018)
In all, about 94,000 compounds went through this assay and about 4,000 (4.3%) were called active. Inconclusive means that the source gave no clear call. Such entries were picked first, then a sample of the others. Calls follow the shape of the dose curve; as a rule, active = well fitted inhibition curve with a large enough effect; inconclusive = small, poorly fitted or top-dose-only effect; inactive = no such curve, though single readings can be large or run the other way. Potencies of inconclusive entries are doubtful fits and often do not repeat.

Test: Cytotoxic Profiling in NIH 3T3 Cell Line of Diverse Libraries Using Quantitative High-Throughput Screening; also: nearly all actives have a fitted effect of over 55% in size
Details: NIH 3T3 viability, CellTiter-Glo ATP luminescence, 48-72 h; activity change, negative = cytotoxicity: at 96.7 µM (top of the series) unless noted; series mostly up to 96.7 µM
Procedure, shortened: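 Cytotoxicity was measured by CellTiter-Glo ATP luminescence after 48 or 72 h compound exposure at 37 °C. Mouse NIH 3T3 fibroblasts were seeded at 400 cells/well and dosed by 23 nL pin transfer.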
% is scaled to controls: 0 for no effect and ±100 for the full control effect; potency is read from the fitted curve at half-maximal effect; tags tell the direction and shape of the fitted curve.

Q: Which Potency does the source give for `Cc1ccccc1-c1[nH]nc2ncc(-c3c(C)noc3C)nc12` here?
A: The Potency was inconclusive: 20 µM [inhibitor, full curve, poor fit].

Q: For `O=C(NC1CCN(c2cc(-c3ccc(Cl)cc3)[nH]n2)CC1)c1ccc2[nH]ccc2c1`, which Potency is on record?
A: Its Potency is active: 35.5 µM.

Q: For `C/C(=C\c1ccccc1)CN1CCCC12Cc1ccccc1CNC2=O` (centres undefined), which Potency is on record?
A: Its Potency is inconclusive: 50.1 µM [inhibitor, partial curve, poor fit].

Q: With `Cn1nc(C(=O)N2CCc3nn(CC#N)c(=O)n3CC2)c2ccccc21` as the compound, how does the “activity change, negative = cytotoxicity” value read?
A: The value was inactive: -3.95%.

Q: Which Potency does the source give for `CC1=C[C@@H](CNC(=O)c2ccccc2)[C@H](C(C)C)C[C@H]1CC(=O)N1CCN(C)CC1` here?
A: The Potency was inconclusive: 126 µM [inhibitor, single point].

Q: For `COc1ccc(-c2cc(N3CCC(NC(=O)c4cccc(F)c4)CC3)n[nH]2)cc1`, which Potency is on record?
A: Its Potency is inconclusive: 44.7 µM [inhibitor, partial curve, poor fit].

Q: With `CCNC(=O)NC[C@H]1COCc2nc3cc(C(=O)OC)ccc3n21` as the compound, how does the “activity change, negative = cytotoxicity” value read?
A: The value was inactive: -3.3% [at 138 µM].

Q: With `CCc1nc(-c2c3n(c(=O)n(Cc4cc(F)ccc4F)c2=O)CCCCC3)no1` as the compound, how does the “activity change, negative = cytotoxicity” value read?
A: The value was inactive: -3.76%.

Q: For `C#CCNC(=O)c1nc2sccn2c1Br`, which Potency is on record?
A: Its Potency is inconclusive: 89.1 µM [inhibitor, partial curve, poor fit].

Q: Which “activity change, negative = cytotoxicity” value does the source give for `O=C(c1ccsc1)N1CCCC2(C1)Nc1cccnc1NC2=NCc1ccccc1` (centres undefined) here?
A: The value was inactive: -6.81%.

Q: For `CCc1noc(-c2nc(-c3cccc(F)c3)no2)n1`, which “outcome” value is on record?
A: The value was “inactive”.

Q: For `C=CCn1cc(CN2CCOC(Cc3cccc4ccccc34)C2)c(C)n1` (centres undefined), which Potency is on record?
A: Its Potency is inconclusive: 89.1 µM [inhibitor, single point].

Q: Which Potency does the source give for `CC(C)C[C@@H]1N[C@H](C(=O)NCCN2CCOCC2)Cc2cn(Cc3ccccn3)c3cccc1c23` here?
A: The Potency was inconclusive: 56.2 µM [inhibitor, partial curve, poor fit].

Q: For `Clc1ccc(Nc2ncc(-c3cccnc3)c3c2OCC3)cc1`, which Potency is on record?
A: The Potency was inconclusive: 20 µM [inhibitor, full curve, poor fit].

Q: Which “outcome” value does the source give for `CCOc1cc(=O)n2c(c1C(=O)NCCCN1CCCCC1)CCCCC2` here?
A: Its value is “inactive”.

Q: Which Potency does the source give for `O=C(c1cc(F)ccc1F)N1CCCC(n2cc(-c3nc(-c4ccccc4)no3)nn2)C1` (centres undefined) here?
A: The Potency was inconclusive: 31.6 µM [inhibitor, partial curve, poor fit].

Q: For `O=C(Nc1ccc(F)c(F)c1)N1CCc2c(c3ccccc3n2CC2CC2)C1`, which Potency is on record?
A: Its Potency is inconclusive: 15.8 µM [inhibitor, full curve].

Q: With `CCn1nccc1C(=O)N1CCC(OCCOc2ccc(F)cc2)CC1` as the compound, how does the Potency read?
A: The Potency was inconclusive: 25.1 µM [inhibitor, partial curve, poor fit].

Q: Which “activity change, negative = cytotoxicity” value does the source give for `O=C(Nc1ccc2c(c1)OCO2)C1CN(S(=O)(=O)c2cccnc2)CC12CCCCC2` (centres undefined) here?
A: The value was inactive: -27.1%.
